We go through 153 variants from a collection of fitness landscapes (doi:10.1016/j.celrep.2020.107928).

Over roughly 81,000 sequences, “one-hybrid fitness for binding NBS DNA” has its median near -0.1; the highest 2% begin near 0.36. Some of the results follow.

First the molecules themselves.
B1: Caulobacter ParB omega fusion; a variant is named by its letters at X, in order, B8GW30 (parent)
chain: MESVVVGEPGMSEGRRGLGRGLSALLGEVDAAPAQAPGEQLGGSREAPIEILQRNPDQPRRTFREEDLEDLSNSIREKGVLQPILVRPSPDTAGEYQIVAGERAWRAAQRAGLKTVPIMVRELDDLAVLEIGIIENVQRADLNVLEEALSYKVLMEKFERTQENIAQTIGKSXSHVANXMRLLXLPDEVQSYLVSGELTAXHARAIAAAADPVALAKQIIEGGLSVRETEALARKAPNLSAGKSKGGRPPRVKDTDTQALESDLSSVLGLDVSIDHRGSTGTLTITYATLEQLDDLCNRLTRGI

The experiment covers variants of B1. As to the kind of experiment: one-hybrid fitness for binding NBS DNA (the Noc-binding site; scaled: cognate 1, non-cognate 0); higher = stronger binding. The note with it: with NBS DNA site. Put shortly:
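The reporter was HIS3, with the binding site 19 bp from the promoter, in E. coli USO used for bacterial one-hybrid selection of Caulobacter ParB libraries with four specificity codons randomised. Growth was on M9 lacking histidine, with 0.1 mM IPTG and 5 mM 3-AT, for 48 hours at 37°C. Illumina sequencing covered plasmids before and after selection; three replicate libraries were pooled and variants with under 10 reads dropped. A fitness score is the log change in variant-to-wild-type read ratio, rescaled to the cognate and non-cognate references.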
With PHSS, the “one-hybrid fitness for binding NBS DNA” value was no more than 0.2.
The value for PARE was no more than 0.2.
In the case of ECYR it was no more than 0.2; in that of TMFR, no more than 0.2; in that of RYPK, no more than 0.2.
As to TVYS, the “one-hybrid fitness for binding NBS DNA” value is no more than 0.2.
In the case of TILT it was no more than 0.2; in that of IQPH, no more than 0.2.
As to KYCL, the “one-hybrid fitness for binding NBS DNA” value is no more than 0.2.
In the case of WVGN it was no more than 0.2; in that of HTVD, no more than 0.2; in that of QWSY, no more than 0.2.
In the case of KWHS it was no more than 0.2; in that of RTGG, no more than 0.2.
In the case of ADKE it was no more than 0.2; in that of HWYS, no more than 0.2; in that of AFVG, no more than 0.2.
Regarding PCAV, the “one-hybrid fitness for binding NBS DNA” value is no more than 0.2.
In the case of HRCD it was no more than 0.2.
The value for EPYC was no more than 0.2; that for QTAM was 0.233.
Turning to FRRQ, the “one-hybrid fitness for binding NBS DNA” value was no more than 0.2.
The value for QKHQ was no more than 0.2; that for QQYV was no more than 0.2; that for GTCQ was no more than 0.2.
In the case of RTRF it was no more than 0.2.
In the case of EVRL, the “one-hybrid fitness for binding NBS DNA” value is no more than 0.2.
Turning to GGKC, the “one-hybrid fitness for binding NBS DNA” value was no more than 0.2.
In the case of ERPI, the “one-hybrid fitness for binding NBS DNA” value is no more than 0.2.
The value for YCQS was no more than 0.2.
With QWKR, the “one-hybrid fitness for binding NBS DNA” value was 0.356.
FSRT: the “one-hybrid fitness for binding NBS DNA” value was no more than 0.2.
With RLLV, the “one-hybrid fitness for binding NBS DNA” value is no more than 0.2.
On to GCYR, for which the “one-hybrid fitness for binding NBS DNA” value is no more than 0.2.
The value for EPQP was no more than 0.2; that for RGMK was no more than 0.2.
KQEL: the “one-hybrid fitness for binding NBS DNA” value is no more than 0.2.
The value for DWVS was no more than 0.2; that for AMAS was no more than 0.2; that for TSYG was no more than 0.2.
In the case of NTQV it was no more than 0.2; in that of VDER, no more than 0.2.
GTEF: the “one-hybrid fitness for binding NBS DNA” value is no more than 0.2.
Regarding VCIC, the “one-hybrid fitness for binding NBS DNA” value was no more than 0.2.
The value for MVHR was no more than 0.2; that for HLEP was no more than 0.2.
In the case of SCPV it was no more than 0.2; in that of QTKT, 0.883.
In the case of PSTN it was no more than 0.2.
Take TLSN: the “one-hybrid fitness for binding NBS DNA” value was no more than 0.2.
The value for QQFL was no more than 0.2; that for LDNG was no more than 0.2.
In the case of DMVL it was no more than 0.2; in that of KELI, no more than 0.2; in that of CSSE, no more than 0.2.
In the case of HYVC it was no more than 0.2; in that of GMKG, no more than 0.2; in that of NTRW, no more than 0.2.
In the case of WIKR, the “one-hybrid fitness for binding NBS DNA” value is no more than 0.2.
The value for VRND was no more than 0.2; that for IRCT was 0.207; that for FCPS was no more than 0.2.
With PKNG, the “one-hybrid fitness for binding NBS DNA” value was no more than 0.2.
The value for RHCI was no more than 0.2; that for YPTT was no more than 0.2.
The value for IKES was no more than 0.2; that for EPKL was no more than 0.2; that for IIPN was no more than 0.2.
The value for PMCM was no more than 0.2; that for WTMK was no more than 0.2; that for DEIR was no more than 0.2.
For KMGV, the “one-hybrid fitness for binding NBS DNA” value was no more than 0.2.
The value for GGSE was no more than 0.2; that for VNMS was no more than 0.2; that for TKTN was no more than 0.2.
Turning to VRMY, the “one-hybrid fitness for binding NBS DNA” value was no more than 0.2.
The value for RLNP was no more than 0.2.
The value for TCHY was no more than 0.2; that for RVPV was no more than 0.2; that for LKEE was no more than 0.2.
The value for SGEY was no more than 0.2; that for GSMC was no more than 0.2.
For ITFG, the “one-hybrid fitness for binding NBS DNA” value was no more than 0.2.
In the case of QFSC it was no more than 0.2; in that of IEPV, no more than 0.2; in that of DFSV, no more than 0.2.
In the case of LNNW it was no more than 0.2; in that of CLMG, no more than 0.2.
In the case of QVHF it was no more than 0.2; in that of YNSE, no more than 0.2; in that of HMPI, no more than 0.2.
LLPQ: the “one-hybrid fitness for binding NBS DNA” value was no more than 0.2.
In the case of NHAA it was no more than 0.2; in that of EQTR, no more than 0.2; in that of PKHS, no more than 0.2.
Consider LHGM, for which the “one-hybrid fitness for binding NBS DNA” value is no more than 0.2.
With MPMF, the “one-hybrid fitness for binding NBS DNA” value is no more than 0.2.
In the case of RMCP it was no more than 0.2; in that of DNYE, no more than 0.2.
In the case of QKQR it was 0.67; in that of RICR, 0.369; in that of CMWS, no more than 0.2.
In the case of TMLT it was no more than 0.2; in that of EINN, no more than 0.2; in that of IKAE, no more than 0.2.
Consider MKYV, for which the “one-hybrid fitness for binding NBS DNA” value was no more than 0.2.
In the case of THNA it was no more than 0.2; in that of QQPM, no more than 0.2; in that of SVIS, no more than 0.2.
In the case of RTAS it was 0.454; in that of EPNT, no more than 0.2.
In the case of KRHH it was 0.261.
In the case of KCKF, the “one-hybrid fitness for binding NBS DNA” value was no more than 0.2.
In the case of KVLT it was no more than 0.2; in that of MAHS, no more than 0.2.
In the case of ADCG it was no more than 0.2; in that of ETIS, no more than 0.2; in that of SLAA, no more than 0.2.
The value for MAPC was no more than 0.2; that for GTQG was no more than 0.2; that for HYFC was no more than 0.2.
Take YQYK: the “one-hybrid fitness for binding NBS DNA” value is no more than 0.2.
In the case of QVGY it was no more than 0.2; in that of HTTD, no more than 0.2.
AQRW: the “one-hybrid fitness for binding NBS DNA” value is no more than 0.2.
In the case of GCVW it was no more than 0.2.
The value for MYCG was no more than 0.2; that for TKLL was no more than 0.2.
On to GVIF, for which the “one-hybrid fitness for binding NBS DNA” value is no more than 0.2.
In the case of TQQS it was no more than 0.2; in that of NRNS, no more than 0.2.
In the case of QAWV it was no more than 0.2; in that of IKKS, no more than 0.2; in that of WLPG, no more than 0.2.
The value for FTTL was no more than 0.2; that for YQAS was no more than 0.2.
In the case of LKIR, the “one-hybrid fitness for binding NBS DNA” value was no more than 0.2.
As to PKQY, the “one-hybrid fitness for binding NBS DNA” value is no more than 0.2.
The value for GEAG was no more than 0.2; that for DHPD was no more than 0.2.
On to VSKG, for which the “one-hybrid fitness for binding NBS DNA” value was no more than 0.2.
In the case of LLNA it was no more than 0.2; in that of MLGR, no more than 0.2.
In the case of SGPC it was no more than 0.2.
The value for AMVI was no more than 0.2.
With VSQR, the “one-hybrid fitness for binding NBS DNA” value was no more than 0.2.
The value for HYVV was no more than 0.2.
The value for FTAV was no more than 0.2.
In the case of KIRI it was no more than 0.2; in that of GRES, no more than 0.2; in that of IMAE, no more than 0.2.
On to ALMH, for which the “one-hybrid fitness for binding NBS DNA” value was no more than 0.2.
In the case of FYEC it was no more than 0.2.
